# Data taken from the supplement of paper PMC11417369.
# The other results are listed elsewhere or left out.
# Tested on: PfSIP2 AP2 domain 1 (GST-tagged)
# Assay: gcPBM binding intensity (ln(normalized median fluorescence intensity)); higher = stronger DNA binding
# In short: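 DNA-binding domains from P. falciparum, fused to GST and produced in E. coli, were put on an Agilent 4 × 180k double-stranded probe array for 1 h in 1× PBS holding 1% milk, 0.2 mg/ml BSA, 0.5% salmon testes DNA and 0.03% Triton X-100. Probes were primer-extended, 36 bp long and drawn from intergenic genomic regions, with negative controls included. After Alexa488 anti-GST antibody detection and a 488 nm scan, binding intensity was set as the highest Masliner-normalised natural-log median intensity across replicate spots of either probe orientation.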
row,Sequence,gcPBM binding intensity (ln)
1,ATATTACAACGTAACGAATATTTCATAAATTCTTAA [CACACA_negctrl_site770],6.61
2,ATTTCTCAATCGTAATGTACAAAAAAAAGGAAAAAA [XGTACX_site1193],7.09
3,TTATATAGATGGAATAGTACAGTATATATATATATA [XGTACX_site8755],9.2
4,ATATTATTAATATATTGTACTTTTTTTTTTTTATTT [XGTACX_site496],6.96
5,ATATGTATTTAATTCACACAAAAATATGTTCATGAA [CACACA_site5223],7.13
6,CACATTATGTATCATACACACAAATAAATATATAAT [CACACA_site4505],7.12
7,TGAAAATAATTATAGGTGCATAAACATACGGATCTT,9.89
8,TTTTTTTTGTATTTTTCACACACTCTCTATCTCTCT [CACACA_site8655],6.85
9,TATAAAAATAATATTACACACATGTAAAATGCCCGT [CACACA_site7522],6.83
10,ATATATTAATAATAAATTAAAAGGAGTAACATTTTC [CACACA_negctrl_site320],6.96
11,AATTTAATTATGGTAACACACAATAAAAAAAAATCT [CACACA_site568],6.94
12,TTTTTTTTTTTCTTTGCACACAGATAACTTGAAATT [CACACA_site2184],7.2
13,ATATTTTATTTTCCATGTACACAAAAAAAAAAAAAA [XGTACX_site8327],7.53
14,AAGAAAATAAAGGATATGAAAAATAAAAAAAAGGAG [TGCATGCA_negctrl_site265],8.02
15,AGGTTAAAAATAAATACACACATTTTATGGGTGTAT [CACACA_site4702],6.76
16,TTCTCACTTTTAAATTTTATTCAAAAATAAGGAAAG [XGTACX_negctrl_site444],7.22
17,GAGAGTAAAACAAATATACACACCATAAAGTTATAA [CACACA_site1686],6.87
18,ATATATATATATAAATGTACATATGTATAATTCATA [XGTACX_site6679],8.9
19,ATTTCGTTCTTTTATGCACACTCAACATATAAATTA [CACACA_site8322],8.1
20,TATTTTTCCATATGCACACACACCGTATCTAGAATA [CACACA_site6654],7.67
21,TACATAAACATTTATACACACATTATGTATACATAT [CACACA_site405],7.13
22,GGATTTTTCGAATCATGTACATATTTAATTAAAAAA [XGTACX_site7939],6.9
23,TAGAATGTATGTAGTGCACACCTCTATAATATATTA [CACACA_site1873],10.7
24,AACTTTGGCAAACACACACACACACCCACACCCACA [CACACA_site588],6.9
25,TTTTTTTTTTGCACGTGTACATAAAAATATATATAT [XGTACX_site3116],8.08
